Experimental findings from PMC6919601, “Identification of Plasmodium dipeptidyl aminopeptidase allosteric inhibitors by high throughput screening” (PLoS ONE, 2019) are described below.

Out of some 110,000 compounds screened, about 230 (0.21%) showed an effect of 50% or more. This is one part of the list.
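Note: 30 min substrate incubation versus DMSO and 10 µM JCP410 controls.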

This assay deals with DPAP1 (Plasmodium falciparum, UniProt Q8IIJ9). Kind of assay: primary screen, percent inhibition; read by cleavage of a fluorogenic dipeptide substrate; higher = more effect of the substance. Set-up: species or system P. falciparum D10 trophozoite lysates; single well.
Sequence of DPAP1 (Q8IIJ9 whole entry, looked up): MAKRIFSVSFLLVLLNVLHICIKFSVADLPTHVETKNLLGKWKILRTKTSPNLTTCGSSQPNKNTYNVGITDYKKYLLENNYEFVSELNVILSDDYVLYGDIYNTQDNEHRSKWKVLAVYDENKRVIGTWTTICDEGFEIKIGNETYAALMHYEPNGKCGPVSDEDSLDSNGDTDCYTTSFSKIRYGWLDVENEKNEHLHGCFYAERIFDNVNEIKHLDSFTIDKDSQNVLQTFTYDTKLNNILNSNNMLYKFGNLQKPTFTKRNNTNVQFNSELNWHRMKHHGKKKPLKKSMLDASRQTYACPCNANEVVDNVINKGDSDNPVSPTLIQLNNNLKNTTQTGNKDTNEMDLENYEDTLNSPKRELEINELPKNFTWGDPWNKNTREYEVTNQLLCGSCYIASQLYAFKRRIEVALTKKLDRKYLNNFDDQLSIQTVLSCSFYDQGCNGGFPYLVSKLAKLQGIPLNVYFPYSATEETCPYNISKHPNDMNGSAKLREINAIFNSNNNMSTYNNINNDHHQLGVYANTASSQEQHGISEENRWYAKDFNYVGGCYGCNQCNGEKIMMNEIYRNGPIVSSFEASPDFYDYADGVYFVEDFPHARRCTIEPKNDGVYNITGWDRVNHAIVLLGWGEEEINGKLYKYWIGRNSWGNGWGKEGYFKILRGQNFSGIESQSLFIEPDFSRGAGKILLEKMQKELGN
Turning to `CCC(C)NC(=O)c1ccc(CS(=O)Cc2ccc(C)cc2)o1` (stereo not shown), the “% Inhibition @ 10 uM” value is 3.24%.
With `CCOc1ccc2nc(C)sc2c1`, the “% Inhibition @ 10 uM” value was found to be 2.13%.
For `C=CCN1C(=O)/C(=C\c2ccc(Cl)cc2)C(C(=O)OCC)=C1C`, the “% Inhibition @ 10 uM” value was -2.43%.
For the compound `CC(=O)N1c2ccccc2C(C)(c2ccc(Br)cc2)CC1(C)C` (stereo not shown), the “% Inhibition @ 10 uM” value was 2.13%.
Consider `C=C(C)Cn1c(CCCNC(=O)c2cccc(C)c2)nc2ccccc21`, for which the “% Inhibition @ 10 uM” value worked out at 3.49%.
Regarding `C=CCn1c(SCC(N)=O)nc2sc3c(c2c1=O)CCCC3`, the “% Inhibition @ 10 uM” value was determined as 5.59%.
As for `OC(c1ccccc1)(c1ccccc1)C1CCCN1` (stereo not shown), the “% Inhibition @ 10 uM” value is -3.6%.
Regarding `O=C1CCCc2nn(-c3ccccc3)nc21`, the “% Inhibition @ 10 uM” value stood at 2.92%.
For the compound `CC1=C(C(=O)N2CCN(C(=O)c3ccco3)CC2)C2(CCN(Cc3ccccc3)CC2)OC1=O`, the “% Inhibition @ 10 uM” value was 3.87%.
`OC(CN1CCOCC1)c1csc2ccccc12` (stereo not shown): the “% Inhibition @ 10 uM” value is given as -4.18%.
Take `Cc1ccc(Cl)cc1-n1nnc(-c2nc(-c3ccc4c(c3)OCO4)no2)c1N`: the “% Inhibition @ 10 uM” value amounted to 2.45%.
Take `CCN(CC)CCNC(=O)Cn1ncc2c(C)n(Cc3ccccc3F)c(C)c2c1=O`: the “% Inhibition @ 10 uM” value is listed as 2.84%.
The same measure for `CCCOc1ccc(C2C3=C(O)CCCC3=NC(C)=C2C(=O)Nc2ccccc2OC)cc1OC` (stereo not shown): 3.99%; for `COc1cccc(N(CC(=O)NCc2ccccc2)S(=O)(=O)c2ccc(C)cc2)c1`: -6.75%; for `CCOC(=O)c1cnc2nc(-c3ccc(OC)cc3)nn2c1O`: -0.671%.
As to `CCOc1ccc(-c2c(C)[n+]([O-])c3c([n+]2[O-])CCCCC3)cc1`, the “% Inhibition @ 10 uM” value stood at 0.147%.
To `Cc1ccccc1-c1noc(CCC(=O)NCC2CCCO2)n1` (stereo not shown) belongs -3.12%; to `CSc1nc(Oc2cccc3ccccc23)cc(-n2ncc(C#N)c2N)n1`, -5.79%; to `Oc1cc(O)c(C(O)(C(F)(F)F)C(F)(F)F)cc1C(O)(C(F)(F)F)C(F)(F)F`, 3.47%.
To `COc1ccc(C2Nc3ccccc3C(=O)N2c2ccccc2)cc1` (stereo not shown) belongs -3.05%; to `O=C(/C=C/c1cccc([N+](=O)[O-])c1)Nc1ccc(Cl)cc1`, 6.14%.
On to `O=C(CSCc1cnn(-c2ccccc2)c1-n1cccc1)NCc1ccccc1Cl`, for which the “% Inhibition @ 10 uM” value is listed as -5.15%.
Consider `COc1ccc2cc(-c3nc(-c4cccnc4)no3)c(=O)oc2c1`, for which the “% Inhibition @ 10 uM” value was -4.32%.
Consider `CC(=O)c1cccc(/N=C(\C)C2=C(O)c3ccccc3C2=O)c1`, for which the “% Inhibition @ 10 uM” value came out at 6.97%.
To `Cc1cc(/C=C2\SC(N)=NC2=O)c(C)n1-c1ccccc1` belongs -4.24%; to `CC(C)NC(=O)CSc1cn(CC(=O)N(C(C)C)C(C)C)c2ccccc12`, 7.99%.
The same measure for `CCO/C(O)=C1/C(C)=Nc2ncnn2C1c1ccccc1Cl` (stereo not shown): -5.19%; for `Cc1cc(C)c2c3c(sc2n1)C(c1ccccc1Cl)C(C#N)=C(N)O3` (stereo not shown): -0.305%; for `Cc1nnc2c3ccccc3c(N3CCCC3)nn12`: 2.02%.
For the compound `Cc1ccc(S(=O)(=O)Nc2ccc(Br)cc2C)cc1`, the “% Inhibition @ 10 uM” value is listed as -3.35%.
The same measure for `O=C(NC1CCN(Cc2ccccc2)CC1)C1CCN(c2nnc(-n3cccc3)s2)CC1`: -2.25%; for `N#CCNC(=O)[C@H](CC1CCCCC1)NC(=O)Nc1ccc2ccccc2c1`: -1.83%; for `CC(C)c1ccc(/C=C/C(=O)N2CCN(C)CC2)cc1`: 1.63%.
To `COc1ccc(-c2c(C)nn3c(O)cc(C)nc23)cc1` belongs -3.44%.
As for `O=C(Nn1cnnc1)c1sc2ccccc2c1Cl`, the “% Inhibition @ 10 uM” value is listed as -0.0626%.
As to `COc1ccc(C(=O)N2CCN(C(=O)CC(C)C)CC2)cc1OC`, the “% Inhibition @ 10 uM” value is listed as -5.26%.
Consider `O=[N+]([O-])c1ccccc1S(=O)(=O)Nc1ccc(Cl)cc1`, for which the “% Inhibition @ 10 uM” value is on record as 0.962%.
Turning to `C=CCS(=O)(=O)C[C@H](NC(=O)OC)C(=O)N[C@@H](CCCC)C(=O)c1nc2ccccc2o1`, the “% Inhibition @ 10 uM” value is listed as 7.14%.
To `CCc1ccc2ncc(S(=O)(=O)c3ccc(OC)cc3)c(N3CCC4(CC3)OCCO4)c2c1` belongs -0.0881%.
On to `Clc1ccc(-c2cnc3ccccc3n2)cc1Cl`, for which the “% Inhibition @ 10 uM” value was -2.03%.
As to `COc1ccc(C2=NN(CC(=O)NCCN(C)C)C(=O)CC2)cc1`, the “% Inhibition @ 10 uM” value amounted to 1.62%.
The same measure for `COc1ccc(CCNC(=O)CN2C(=O)c3cccc4cccc(c34)C2=O)cc1OC`: 4.03%; for `Cc1cc(Cl)ccc1OCC(=O)Nc1cccc(Cl)c1`: -3.04%.
To `C=CCNC(=S)N(Cc1ccccc1)Cc1ccccc1` belongs 4.16%; to `CCCn1c(C(O)c2ccc(N(C)C)cc2)nc2ccccc21` (stereo not shown), -0.712%; to `Cc1ccc(C(=O)NC(c2ccccc2)c2ccccc2)o1`, -8.02%.
For `O=C(Nc1ccccc1Cl)c1ccc(OC(F)F)cc1`, the “% Inhibition @ 10 uM” value is given as -5.31%.
`COc1ccc(-c2noc(-c3nnn(-c4cccc(Cl)c4C)c3N)n2)cc1`: the “% Inhibition @ 10 uM” value is given as -4.5%.
As for `CCOc1ccc(-n2cc(-c3ccccc3)c3c(NCCN4CCOCC4)ncnc32)cc1`, the “% Inhibition @ 10 uM” value is reported as -0.417%.
As to `CCCc1ccc(OCc2ccc(C(=O)OC)cc2)c(OC)c1`, the “% Inhibition @ 10 uM” value is 8.07%.
Take `COc1ccc(CCNC(=O)C(C)n2ccc3cc(S(=O)(=O)N4CCCC4)ccc32)c(OC)c1` (stereo not shown): the “% Inhibition @ 10 uM” value turned out to be 5.78%.
Regarding `Cc1nc2c3ccccc3nc(NCc3ccc4c(c3)OCO4)n2n1`, the “% Inhibition @ 10 uM” value amounted to 0.981%.
With `N=C1/C(=C/c2cccn2-c2ccc(Br)cc2)C(=O)N=C2SC=CN12`, the “% Inhibition @ 10 uM” value worked out at 1.9%.
With `Nc1nonc1-c1nc2ccccc2n1Cc1cc2c(cc1Cl)OCO2`, the “% Inhibition @ 10 uM” value is reported as -1.22%.
For the compound `OC(CC#CCN1CCCCC1)(c1ccccc1)C1CCCCC1` (stereo not shown), the “% Inhibition @ 10 uM” value was -7.7%.
On to `CCCCOc1ccc(C(=O)/N=c2\sc(C(=O)OCC)c(C)n2C)cc1`, for which the “% Inhibition @ 10 uM” value is -2.36%.
As to `CC(Cc1ccccc1)NC(=O)CN1C(=O)c2ccccc2S1(=O)=O` (stereo not shown), the “% Inhibition @ 10 uM” value was -3.39%.
The same measure for `Cc1cc(NC(=O)CN(C)CCC#N)nc2c1c(=O)oc1ccccc12`: -4.46%; for `O=C(CN1CCN(Cc2ccccc2Cl)S1(=O)=O)NCc1ccccc1Cl`: -2.41%; for `CCOc1ccc2nc(N3CCC(C(=O)N4CCN(c5ncccn5)CC4)CC3)sc2c1`: 4.76%.
On to `Cc1ccccc1S(=O)(=O)NC(=O)Nc1nc(-c2cccc(C(F)(F)F)c2)cs1`, for which the “% Inhibition @ 10 uM” value was -2.5%.
`Cc1cc(NC(=O)Nc2cc(C)nn2-c2ccccc2)n(-c2ccccc2)n1`: the “% Inhibition @ 10 uM” value is 0.708%.
The same measure for `COc1ccc(S(=O)(=O)Nc2cc3sc(=O)oc3c3ccccc23)cc1`: -4.43%.
`O=C(CCc1nc2ncccc2c(=O)n1Cc1ccccc1)NCc1ccccc1Cl`: the “% Inhibition @ 10 uM” value is reported as 0.953%.
